Out of some 48,000 compounds screened, about 120 (0.25%) were called active. About 4% were inconclusive and are not listed. Calls come from the whole dose curve; as a rule, active = well fitted activation curve with a large enough effect; inconclusive = small, poorly fitted or top-dose-only effect, or another doubt; inactive = no such curve, though single readings can be large or run the other way. The list shows a part of the results.
experiment: Primary qHTS for Identification of Small Molecule Activators of Huntingtin-Antisense Promoter Activity; details: HEK293 HTT-AS promoter firefly luciferase reporter (activity 0% = vehicle and -100% = no light), 24 h; series mostly up to 57.5 µM; activity change, positive = activation: at the top concentration; note: nearly all actives have a fitted effect of over 55% in size
Summary of the method: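 Firefly luciferase signal from promoter-reporter HEK293 cells was scaled between vehicle (0%) and zero RLU (-100%). Compounds were tested at final concentrations of up to 57.5 uM over 24 h at 37 degrees C. PTC124 at 50 uM final served as control inhibitor.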

Activity change, positive = activation, inactive:
COc1ccc(-c2noc(CCC(=O)Nc3ccccc3Cl)n2)cc1OC -38.9%, CCOCCc1nn2c(=O)cc(COC(=O)C(CC)c3ccccc3)nc2s1 (stereo not given) -14.6%, Cc1cccc(C(=O)Nc2ccccc2SCc2cc(=O)c3cccc(C)c3[nH]2)c1 -23.6%, Cc1nnc(N2CCN(c3ccccc3F)CC2)c2c1nnn2Cc1ccccc1 -3.36%, COc1ccc(NC(=O)CCn2cccn2)cc1OC -10.5%, CCOc1ccc(NC(=O)Cn2c(=O)n(CCC(=O)NCCc3ccccc3)c(=O)c3ccccc32)cc1 -8.13%, CCCn1cc(S(=O)(=O)c2ccc(CC)cc2)c(=O)c2ccccc21 -12.1%, Cc1ccc2occ(-c3cc(-c4ccc(Cl)cc4)nc4c3COc3ccccc3-4)c(=O)c2c1 -9.88%, Cc1ccc(N(C)C(=O)C2CCCN(c3ncnc4c3nc3n4CCCCC3)C2)cc1C (stereo not given) -37.6%, Cc1ccc(Cn2c(=O)n(Cc3ccccc3Cl)c(=O)c3ccccc32)cc1 -2.12%, CCCCc1nn2c(=O)cc(COC(=O)c3ccc(NC(=O)C4CCCCC4)cc3)nc2s1 12.3%, COC(=O)CC1Oc2ccccc2-n2cc(-c3ccc(Cl)cc3)nc21 (stereo not given) -8.63%, Cc1ccccc1C(=O)Nc1nnc(S(=O)(=O)N2CCCCCC2)s1 -10.4%, COc1ccc(CNC(=O)Cc2csc3nc(-c4ccc(C)cc4)cn23)cc1 16.9%, Cc1ccc(Cl)cc1N1CCN(C(=O)C2CCN(Cc3nc(-c4cccc(Cl)c4)oc3C)CC2)CC1 -28.6%, CCc1nn2c(=O)cc(COC(=O)C(c3ccccc3)c3ccccc3)nc2s1 -12.6%, Cc1cccc(-c2nc(SCC(=O)Nc3ccc4c(c3)OCCO4)c(-c3ccccc3)[nH]2)c1 -10.7%, COc1ccc(-n2nc(C(=O)NCCc3cccc(C)c3)c3c4ccccc4n(C)c3c2=O)cc1Cl -9.24%, CCOC(=O)c1ccc(Nc2cc(-c3ccccc3)nc(C)n2)cc1 -13.6%, Cc1cc(C)cc(N(CC(=O)NCc2ccccc2Cl)S(=O)(=O)c2c(C)noc2C)c1 -21.3%, CCOC(=O)Cn1c(=O)n(-c2ccccc2OC)c2nc(-c3ccccc3C)nc(C(N)=O)c21 -19.3%, O=C(COc1ccccc1)Nc1ccccc1C(=O)OCc1cc(=O)n2nc(C3CC3)sc2n1 8.47%, CCOc1ccccc1NC(=O)Cn1nnc(C(=O)Nc2ccc(C)c(C)c2)c1N -8.17%, Cc1c(C(=O)N2CCC(C)CC2)c(S(=O)(=O)N2CCN(c3ccc(Cl)cc3)CC2)c(C)n1C -17.1%, Cc1ccc(Cl)cc1N1CCN(C(=O)C2CCN(Cc3nc(-c4ccc(Cl)cc4)oc3C)CC2)CC1 -32.2%, CC(C)(C)OC(=O)N1CCC(c2c(C(=O)NC3CCCCC3)cnn2-c2cccc(Cl)c2)CC1 -26.2%, Cn1nccc1C(=O)NCc1ccc2c(c1)CCN2C(=O)c1ccccc1 -6.14%, COc1ccc(-c2nc3sc(CCNC(=O)C(=O)Nc4c(C)cccc4C)c(C)n3n2)cc1 -3.69%, CC1CCCN(CCCNC(=O)CN2C(=O)CSc3ccc(S(=O)(=O)N4CCOCC4)cc32)C1 (stereo not given) -10.6%, O=C(Cn1c(=O)oc2cc(S(=O)(=O)NC3CCCC3)ccc21)Nc1ccc(F)c(F)c1 -26.3%, Cc1ccc(Cl)cc1N1CCN(S(=O)(=O)c2cc3[nH]c(=O)c(=O)[nH]c3cc2C)CC1 -26.7%, COc1ccccc1CNC(=O)c1cnn2c(C)c(Cc3ccc(F)cc3)c(C)nc12 -10.4%, Cc1ccc(C(c2sc3nc(-c4ccco4)nn3c2O)N2CCN(Cc3ccccc3)CC2)cc1 (stereo not given) -12.1%, COc1cccc(C2CC(=O)Nc3c2c(=O)nc2c(C)cccn32)c1OC (stereo not given) 0.13%, CCOC(=O)c1ccc(NC(=O)CN2C(=O)COc3ccc(Cl)cc32)cc1 -23.1%, COc1ccc2c(c1OC)C(=O)OC2[C@H]1c2c(cc3c(c2OC)OCO3)CCN1C (stereo not given in full) -29.2%, CC(=O)c1ccc(N2CCN(S(=O)(=O)c3ccc(-c4cc(C)no4)s3)CC2)cc1 -31.5%, Cc1cc(C)c(S(=O)(=O)n2cnc(C)c2)c(C)c1 -7.11%, CC(=O)NC(C)c1ccc(Oc2ccc(OC(C)C)cc2)cc1 (stereo not given) 0.261%, Cc1ccc(-c2ccc(=O)n(CC(=O)NCc3ccc(F)cc3)n2)cc1 -6.98%, CCC(C)NC(=O)C1CCC(CNS(=O)(=O)c2ccc(Cl)cc2)CC1 (stereo not given) -3.41%, COc1ccc(-c2nc3n(n2)C(=O)CC(c2ccc(Cl)cc2)S3)cc1 (stereo not given) -6.09%, CCn1c2ccccc2c2cc(NC(=O)COc3ccc(C)c(C)c3)ccc21 8.41%, CCOC(=O)c1ccc(NC(=O)CC2NCCNC2=O)cc1 (stereo not given) 11.7%, Cc1ccc2nc3c(cc(C(=O)NC4CCCCC4)c(=N)n3C(C)C)c(=O)n2c1 -5.28%, CCOC(=O)C1CCN(S(=O)(=O)c2ccc3c(c2)NC(=O)C(C)C(=O)N3)CC1 (stereo not given) -3.71%, COC(=O)c1ccc(NC(=O)C2CCN(C(=O)c3ccc(F)cc3)CC2)cc1 -12.3%, N#Cc1cccc(NC(=O)C2CCN(c3ncccn3)CC2)c1 -3%, CCS(=O)(=O)CCSc1nc(-c2ccc(Br)cc2)cc(-c2ccccc2)c1C#N 2.47%, CCOc1cc(C(=O)Nc2ccc(-c3nc4ncccc4o3)cc2C)cc(OCC)c1OCC 2.78%, Cc1cccc(NC(=O)CCn2nc(-c3ccccc3)c3ccccc3c2=O)c1 -17.6%, CC1=C(C(=O)Nc2ccccc2C)C(c2cccnc2)n2nc(SCc3ccccc3F)nc2N1 (stereo not given) -5.83%, O=C(CCn1c(=O)c2cccn2c2cccnc21)N1CCN(c2cccc(Cl)c2)CC1 -33.9%, CCc1ccc(OCC(=O)N(Cc2ccc(OC)cc2)C2CCS(=O)(=O)C2)cc1 (stereo not given) -14.8%, Cc1cccc(-c2nc(SCC(=O)Nc3ccc4c(c3)OCO4)c(-c3ccccc3)[nH]2)c1 -31.7%, CN1C(=O)Cc2cc(S(=O)(=O)NCCc3ccccc3)ccc21 9.73%, COc1ccc(NC(=O)C2CCCN2S(=O)(=O)c2ccc3nc(-c4ccccc4)[nH]c3c2)cc1 (stereo not given) -13.1%, CCOC(=O)c1cc(-c2ccc(C)cc2)n(CCC(=O)Nc2ccc(OC)c(OC)c2)c1C -28.9%, COCCCNC(=O)Cn1cnc2sc(C)c(S(=O)(=O)N3CCN(c4ccccc4OC)CC3)c2c1=O 12.7%, CCN1CCN(C(=O)c2ccc3c(c2)N(Cc2cccc(F)c2)C(=O)c2ccccc2S3)CC1 -12.3%

— PubChem BioAssay AID1508624 (National Center for Advancing Translational Sciences (NCATS), 2021)
